{
  "source": "patent US10758569B2",
  "about": "“Heteroaryl disulfide compounds as allosteric effectors for increasing the oxygen-binding affinity of hemoglobin” (The General Hospital Corporation, priority 2014, dated 2020)",
  "key": {"[1]": {"target": "T1, hemoglobin (Homo sapiens, UniProt P68871+P69905)", "T1 construct": "from tissue; host or cells: outdated donated human red blood cells (hemolysate supernatant, dialysed against DPBS)", "test": "Oxygen dissociation curve (ODC) of purified hemoglobin, HEMOX analyzer", "assay_type": "biochemical", "experimental": "The ODC of hemoglobin with Compound 1 was measured to determine the increase of oxygen binding affinity of hemoglobin (FIG. 2A). […] Incubation of hemoglobin with Compound 1 reduced the Bohr effect (the increase of the P50 of hemoglobin induced by decreasing the pH)."}, "[2]": {"test_system": "red blood cells from sickle cell disease patients (SRBCs)", "test": "Anti-sickling of red blood cells under hypoxia", "assay_type": "cell-based, human", "experimental": "The pathophysiology of SCD is primarily driven by the polymerization of deoxyHbS (deoxygenated sickle hemoglobin). The morphological changes of red blood cells from sickle cell disease patients (SRBCs) were evaluated in the absence or presence of five different concentrations (0, 0.5, 1, 1.5 and 2 mM) of disulfide 1 in hypoxic condition (4% oxygen at 37° C. for 3 h). In the absence of 1, oxygenated SRBCs (FIG. 7A) were deoxygenated and polymerized to form sickle cells (FIG. 7B). The percentage of newly formed sickled cells was determined by subtracting the percentage of previously existing irreversibly sickled cells from the total percentage of sickled cells after incubation under 4% oxygen.\nIn the absence of Compound 1, over 90% of SRBCs underwent sickling in 3 h (FIG. 7B) but the percentage of sickled cells decreased in a dose-dependent manner of Compound 1 (FIG. 7C-F). In SRBCs with 2 mM of Compound 1, almost 100% of red blood cells were not sickled under hypoxic conditions and appeared as oxygenated SRBCs (FIG. 7A)."}, "[3]": {"test_system": "whole blood", "test": "ODC (P50) of whole blood"}, "[4]": {"test_system": "red blood cells", "test": "ODC of washed red blood cells in Hemox solution", "assay_type": "cell-based, human", "excerpt": "For the reduction of P50, less amount of 1 was needed, and the reaction time of 1 with hemoglobin was faster than NEM and 5HMF."}},
  "note": "Several values for one entry are separate records, joined by “and”; a condition that tells them apart may be missing. Equal entries are not always repeated.",
  "data": [
    {"compound": "c1ccc2c(c1)OCC(c1nnc(SSc3nnc(C4COc5ccccc5O4)[nH]3)[nH]1)O2", "note": "(centres unmarked) [Compound 1, 1,2-bis(5-(2,3-dihydrobenzo[b][1,4]dioxin-2-yl)-4H-1,2,4-triazol-3-yl)disulfane]", "values": [
      {"measurement": "(Δ log P50)/ΔpH (Bohr effect)", "setting": "[1]; 6:1 molar ratio to hemoglobin, 0.1 M phosphate buffer pH 6-8, 37° C.", "value": "−0.08±0.02"},
      {"measurement": "P50 of hemoglobin", "setting": "[1]; Hb 20 μM as tetramer, compound 120 μM, DPBS pH 7.4, 5 vol % DMSO, 10 min at 37° C.", "value": "4.2 Torr and 4.2±0.1 Torr"},
      {"measurement": "red blood cells not sickled", "setting": "[2]; 2 mM, 4% oxygen at 37° C. for 3 h", "value": "~100", "unit": "%"},
      {"measurement": "concentration required to reduce sickling of hypoxic SS RBCs by nearly 90%", "setting": "[2]; hypoxic SS RBCs", "value": 2, "unit": "mM"},
      {"measurement": "P50 of whole blood", "setting": "[3]; 1:1 ratio of compound to hemoglobin", "value": "22±1.4", "unit": "Torr"},
      {"measurement": "reduction of P50 of whole blood versus other small molecules", "setting": "[3]; Compound 1 40 μM versus comparators 120 μM", "value": "reduced the P50 of whole blood greater than did other small molecules"},
      {"measurement": "P50 of RBCs", "setting": "[4]; Compound 1 at 120 μM (6:1 to Hb tetramer), HEMOX solution, 5 vol % DMSO, 10 min at 37° C.", "value": "5.7 Torr and 5.7±0.1 Torr"},
      {"measurement": "reactivity as allosteric effector versus NEM, 5HMF, formamidine disulfide", "setting": "[4]; amount needed and reaction time for P50 reduction", "value": "more reactive allosteric effector than NEM, 5HMF, and formamidine disulfide"}
    ]},
    {"compound": "N=C(N)SSC(=N)N", "note": "[formamidine disulfide, reference compound]", "values": [
      {"measurement": "P50 of whole blood", "setting": "[3]; 6:1 molar ratio of compound to hemoglobin (120 μM)", "value": "23±0.6", "unit": "Torr"},
      {"measurement": "P50 of red blood cells", "setting": "[4]; 400 μM, mixed 1 h at 37° C.", "value": 9, "unit": "Torr"}
    ]},
    {"compound": "Sc1nnc(C2COc3ccccc3O2)[nH]1", "note": "(centres unmarked) [thiol form, 5-(2,3-dihydro-1,4-benzodioxin-2-yl)-4H-1,2,4-triazole-3-thiol, reference compound]", "values": [
      {"measurement": "effect on P50", "setting": "[1]; FIG. 4, compared with Compound 1", "value": "does not alter P50"}
    ]}
  ]
}
